From the supplement of paper PMC12217912
This is one part of the list. The full chains were built here from the parent and the listed change. Values near 0.05 are background.

B1: TEV protease; numbered along this chain (parent)
chain: MGESLFKGPRDYNPISSSICHLTNESDGHTTSLYGIGFGPFIITNKHLFRRNNGTLVVQSLHGVFKVKDTTTLQQHLVDGRDMIIIRMPKDFPPFPQKLKFREPQREERICLVTTNFQTKSMSSMVSDTSCTFPSGDGIFWKHWIQTKDGQCGSPLVSTRDGFIVGIHSASNFTNTNNYFTSVPKNFMELLTNQEAQQWVSGWRLNADSVLWGGHKVFMVKPEEPFQPVKEATQL

Variants of: B1
Assay: raw area under fraction-flipped curve 0-4 h after induction (AUC4h, not background-subtracted), DNA-recorder readout of cleavage of the substrate (dimensionless); higher = more cleavage of the substrate by the protease variant
Conditions: temperature: 34 °C; time window: 0-4 h after rhamnose induction
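Also: Bxb1 expression induced with 0.2% (w/v) L-rhamnose at OD600 near 0.5, cultures sampled hourly, flipped fraction per protease–substrate barcode pair counted by paired-end Illumina sequencing.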

For MGESLFRGPRDYNPISSSICHLTNESDGHTTSLYGIGFGPFIITNKHLFRRNNGTLVVQSLHGVFKVKDTTTLQQHLVDGRDMIIIRMPKDFPPFPQKLKFREPQREERICLVTTNFQTKSMSSMVSDTSCTFPSGDGIFWKHWIQTKDGQCGSPLVSTRDGFIVGIHSASNFTNTNNYFTSVPKNFMELLTNQEAQQWVSGWRLNADSVLWGGHKVFMVKPEEPFQPVKEATQL [K7R], the “area with substrate ENLCFQS” value was 0.0648, the “area with substrate ENLFFQS” value was 0.0807 and the “area with substrate ENLGFQS” value was 0.0708. The “area with substrate ENLHFQS” value was 0.0725, the “area with substrate ENLKFQS” value was 0.0759 and the “area with substrate ENLQFQS” value was 0.0872. The “area with substrate ENLSFQS” value was 0.065 and the “area with substrate ENLWFQS” value was 0.0429.

With MGESLFTGPRDYNPISSSICHLTNESDGHTTSLYGIGFGPFIITNKHLFRRNNGTLVVQSLHGVFKVKDTTTLQQHLVDGRDMIIIRMPKDFPPFPQKLKFREPQREERICLVTTNFQTKSMSSMVSDTSCTFPSGDGIFWKHWIQTKDGQCGSPLVSTRDGFIVGIHSASNFTNTNNYFTSVPKNFMELLTNQEAQQWVSGWRLNADSVLWGGHKVFMVKPEEPFQPVKEATQL [K7T] the “area with substrate ENLCFQS” value was 0.0632, the “area with substrate ENLEFQS” value was 0.0404 and the “area with substrate ENLFFQS” value was 0.0461. For the same variant, the “area with substrate ENLHFQS” value was 0.0481, the “area with substrate ENLNFQS” value was 0.0627 and the “area with substrate ENLPFQS” value was 0.0662.

With MGESLFKGPRDTNPISSSICHLTNESDGHTTSLYGIGFGPFIITNKHLFRRNNGTLVVQSLHGVFKVKDTTTLQQHLVDGRDMIIIRMPKDFPPFPQKLKFREPQREERICLVTTNFQTKSMSSMVSDTSCTFPSGDGIFWKHWIQTKDGQCGSPLVSTRDGFIVGIHSASNFTNTNNYFTSVPKNFMELLTNQEAQQWVSGWRLNADSVLWGGHKVFMVKPEEPFQPVKEATQL [Y12T] the “area with substrate ENLCFQS” value was 0.0707, the “area with substrate ENLDFQS” value was 0.0527 and the “area with substrate ENLEFQS” value was 0.0658. The “area with substrate ENLFFQS” value was 0.0924, the “area with substrate ENLGFQS” value was 0.059 and the “area with substrate ENLHFQS” value was 0.0726. For the same variant, the “area with substrate ENLIFQS” value was 0.0819, the “area with substrate ENLKFQS” value was 0.063 and the “area with substrate ENLNFQS” value was 0.0657. The “area with substrate ENLPFQS” value was 0.0561, the “area with substrate ENLSFQS” value was 0.0673 and the “area with substrate ENLTFQS” value was 0.0594. The “area with substrate ENLVFQS” value was 0.0721.

For MGESLFKGPRDYNPISSSICHLFNESDGHTTSLYGIGFGPFIITNKHLFRRNNGTLVVQSLHGVFKVKDTTTLQQHLVDGRDMIIIRMPKDFPPFPQKLKFREPQREERICLVTTNFQTKSMSSMVSDTSCTFPSGDGIFWKHWIQTKDGQCGSPLVSTRDGFIVGIHSASNFTNTNNYFTSVPKNFMELLTNQEAQQWVSGWRLNADSVLWGGHKVFMVKPEEPFQPVKEATQL [T23F], the “area with substrate ENLCFQS” value was 0.0721, the “area with substrate ENLDFQS” value was 0.0682 and the “area with substrate ENLEFQS” value was 0.0613. The “area with substrate ENLFFQS” value was 0.0955, the “area with substrate ENLHFQS” value was 0.0711 and the “area with substrate ENLKFQS” value was 0.073. The “area with substrate ENLLFQS” value was 0.0622, the “area with substrate ENLMFQS” value was 0.0626 and the “area with substrate ENLNFQS” value was 0.0629. For the same variant, the “area with substrate ENLPFQS” value was 0.0722, the “area with substrate ENLQFQS” value was 0.0505 and the “area with substrate ENLRFQS” value was 0.0894. For the same variant, the “area with substrate ENLSFQS” value was 0.0536, the “area with substrate ENLTFQS” value was 0.0606 and the “area with substrate ENLVFQS” value was 0.0802. For the same variant, the “area with substrate ENLWFQS” value was 0.085.

For MGESLFKGPRDYNPISSSICHLTNESFGHTTSLYGIGFGPFIITNKHLFRRNNGTLVVQSLHGVFKVKDTTTLQQHLVDGRDMIIIRMPKDFPPFPQKLKFREPQREERICLVTTNFQTKSMSSMVSDTSCTFPSGDGIFWKHWIQTKDGQCGSPLVSTRDGFIVGIHSASNFTNTNNYFTSVPKNFMELLTNQEAQQWVSGWRLNADSVLWGGHKVFMVKPEEPFQPVKEATQL [D27F], the “area with substrate ENLCFQS” value was 0.0625, the “area with substrate ENLDFQS” value was 0.0542 and the “area with substrate ENLEFQS” value was 0.0542. For the same variant, the “area with substrate ENLFFQS” value was 0.0776, the “area with substrate ENLHFQS” value was 0.0711 and the “area with substrate ENLKFQS” value was 0.0744. For the same variant, the “area with substrate ENLLFQS” value was 0.0752, the “area with substrate ENLMFQS” value was 0.0702 and the “area with substrate ENLNFQS” value was 0.0652. For the same variant, the “area with substrate ENLPFQS” value was 0.0513, the “area with substrate ENLQFQS” value was 0.0636 and the “area with substrate ENLVFQS” value was 0.0816.

In the case of MGESLFKGPRDYNPISSSICHLTNESDGHTTSAYGIGFGPFIITNKHLFRRNNGTLVVQSLHGVFKVKDTTTLQQHLVDGRDMIIIRMPKDFPPFPQKLKFREPQREERICLVTTNFQTKSMSSMVSDTSCTFPSGDGIFWKHWIQTKDGQCGSPLVSTRDGFIVGIHSASNFTNTNNYFTSVPKNFMELLTNQEAQQWVSGWRLNADSVLWGGHKVFMVKPEEPFQPVKEATQL [L33A], the “area with substrate ENLCFQS” value is reported as 0.0676, the “area with substrate ENLDFQS” value is reported as 0.0579 and the “area with substrate ENLEFQS” value is reported as 0.0681. The “area with substrate ENLFFQS” value was 0.0935, the “area with substrate ENLIFQS” value was 0.0661 and the “area with substrate ENLKFQS” value was 0.0561. For the same variant, the “area with substrate ENLNFQS” value was 0.0556, the “area with substrate ENLPFQS” value was 0.0623 and the “area with substrate ENLRFQS” value was 0.1. For the same variant, the “area with substrate ENLSFQS” value was 0.0711.

For MGESLFKGPRDYNPISSSICHLTNESDGHTTSLYGIDFGPFIITNKHLFRRNNGTLVVQSLHGVFKVKDTTTLQQHLVDGRDMIIIRMPKDFPPFPQKLKFREPQREERICLVTTNFQTKSMSSMVSDTSCTFPSGDGIFWKHWIQTKDGQCGSPLVSTRDGFIVGIHSASNFTNTNNYFTSVPKNFMELLTNQEAQQWVSGWRLNADSVLWGGHKVFMVKPEEPFQPVKEATQL [G37D], the “area with substrate ENLCFQS” value was 0.0431, the “area with substrate ENLDFQS” value was 0.0578 and the “area with substrate ENLEFQS” value was 0.035. The “area with substrate ENLFFQS” value was 0.0512, the “area with substrate ENLGFQS” value was 0.0449 and the “area with substrate ENLHFQS” value was 0.0497. For the same variant, the “area with substrate ENLIFQS” value was 0.0426, the “area with substrate ENLKFQS” value was 0.0456 and the “area with substrate ENLMFQS” value was 0.0321. The “area with substrate ENLNFQS” value was 0.0497, the “area with substrate ENLPFQS” value was 0.0516 and the “area with substrate ENLQFQS” value was 0.0664. For the same variant, the “area with substrate ENLSFQS” value was 0.038 and the “area with substrate ENLWFQS” value was 0.0343.

In the case of MGESLFKGPRDYNPISSSICHLTNESDGHTTSLYGIGFGPMIITNKHLFRRNNGTLVVQSLHGVFKVKDTTTLQQHLVDGRDMIIIRMPKDFPPFPQKLKFREPQREERICLVTTNFQTKSMSSMVSDTSCTFPSGDGIFWKHWIQTKDGQCGSPLVSTRDGFIVGIHSASNFTNTNNYFTSVPKNFMELLTNQEAQQWVSGWRLNADSVLWGGHKVFMVKPEEPFQPVKEATQL [F41M], the “area with substrate ENLCFQS” value is reported as 0.0737, the “area with substrate ENLDFQS” value is reported as 0.0651 and the “area with substrate ENLFFQS” value is reported as 0.104. The “area with substrate ENLHFQS” value was 0.0662, the “area with substrate ENLIFQS” value was 0.0853 and the “area with substrate ENLKFQS” value was 0.0826. The “area with substrate ENLLFQS” value was 0.0693, the “area with substrate ENLNFQS” value was 0.0613 and the “area with substrate ENLPFQS” value was 0.0541. The “area with substrate ENLQFQS” value was 0.061, the “area with substrate ENLRFQS” value was 0.067 and the “area with substrate ENLWFQS” value was 0.0806.

With MGESLFKGPRDYNPISSSICHLTNESDGHTTSLYGIGFGPFIITNKTLFRRNNGTLVVQSLHGVFKVKDTTTLQQHLVDGRDMIIIRMPKDFPPFPQKLKFREPQREERICLVTTNFQTKSMSSMVSDTSCTFPSGDGIFWKHWIQTKDGQCGSPLVSTRDGFIVGIHSASNFTNTNNYFTSVPKNFMELLTNQEAQQWVSGWRLNADSVLWGGHKVFMVKPEEPFQPVKEATQL [H47T] the “area with substrate ENLCFQS” value was 0.0524, the “area with substrate ENLDFQS” value was 0.0675 and the “area with substrate ENLEFQS” value was 0.0462. The “area with substrate ENLFFQS” value was 0.0737, the “area with substrate ENLGFQS” value was 0.05 and the “area with substrate ENLHFQS” value was 0.0597. For the same variant, the “area with substrate ENLKFQS” value was 0.0476, the “area with substrate ENLLFQS” value was 0.0567 and the “area with substrate ENLMFQS” value was 0.0605. The “area with substrate ENLNFQS” value was 0.0564, the “area with substrate ENLPFQS” value was 0.0391 and the “area with substrate ENLQFQS” value was 0.0575. The “area with substrate ENLRFQS” value was 0.0574, the “area with substrate ENLSFQS” value was 0.0414 and the “area with substrate ENLVFQS” value was 0.0949. For the same variant, the “area with substrate ENLWFQS” value was 0.0415.

With MGESLFKGPRDYNPISSSICHLTNESDGHTTSLYGIGFGPFIITNKHLFRQNNGTLVVQSLHGVFKVKDTTTLQQHLVDGRDMIIIRMPKDFPPFPQKLKFREPQREERICLVTTNFQTKSMSSMVSDTSCTFPSGDGIFWKHWIQTKDGQCGSPLVSTRDGFIVGIHSASNFTNTNNYFTSVPKNFMELLTNQEAQQWVSGWRLNADSVLWGGHKVFMVKPEEPFQPVKEATQL [R51Q] the “area with substrate ENLCFQS” value was 0.0644, the “area with substrate ENLDFQS” value was 0.0731 and the “area with substrate ENLEFQS” value was 0.0656. The “area with substrate ENLFFQS” value was 0.0902, the “area with substrate ENLHFQS” value was 0.0775 and the “area with substrate ENLIFQS” value was 0.0484. The “area with substrate ENLKFQS” value was 0.0885, the “area with substrate ENLNFQS” value was 0.0741 and the “area with substrate ENLPFQS” value was 0.0533. For the same variant, the “area with substrate ENLQFQS” value was 0.0808, the “area with substrate ENLRFQS” value was 0.0683 and the “area with substrate ENLSFQS” value was 0.0621. For the same variant, the “area with substrate ENLVFQS” value was 0.0464 and the “area with substrate ENLWFQS” value was 0.0666.
